The supplement of paper PMC11417369
This is one part of the list.

system: PfSIP2 AP2 domain 1 (GST-tagged); assay: gcPBM binding intensity (ln(normalized median fluorescence intensity)); higher = stronger DNA binding
How it was run: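 Binding intensity values are the highest Masliner-normalised natural-log median intensity among replicate spots of either probe orientation. The binding step lasted 1 h in 1× PBS with 1% milk, 0.2 mg/ml BSA, 0.5% salmon testes DNA and 0.03% Triton X-100, using GST-tagged P. falciparum DNA-binding domains expressed in E. coli on an Agilent 4 × 180k array of primer-extended double-stranded 36-bp intergenic genomic probes plus negative controls. Alexa488 anti-GST antibody and a 488 nm scan detected bound protein.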

Sequence	gcPBM binding intensity (ln)
TGAGAGTTCTCATATGCACACAAAAAACTTTCATTT [CACACA_site7898]	8.03
TTGCAACTCTTCAATCGTACACATTATTTATTATAT [XGTACX_site1377]	7.24
TACATATACATATACACACACACACCCAAATAAATA [CACACA_site1344]	7.58
TAATATTTATGTTAATGTACAAAAAAACAAAACAAA [XGTACX_site301]	7.09
GTATGTATATATGTATGTACTTATGTATCATTATTA [XGTACX_site2438]	7.06
ATAATATATATTAAACGTACATAAAATAATTATGGA [XGTACX_site1670]	7.12
ATATATATATATCACCGTACTTATATAATAACATGA [XGTACX_site4398]	9.36
TTTTTTTTTTATTTTTGTACATATATTTCAGTATTA [XGTACX_site8396]	6.95
TAATTATTCTATTAAGTGCATATATTTTTAAAAAGA	8.16
ATTTTTATTAAAATATGTACGTATTTTACTCATACA [XGTACX_site5330]	7.14
ATACAGAAAAAAAACACACACACATAATATACATAC [CACACA_site1933]	7.21
ATAATATTCGAGTGTGCACACAAACATACATATATA [CACACA_site3396]	8.79
ACAGATATATTTATTTGTACATATCACCAAAATGGA [XGTACX_site5644]	6.85
TTAATATAATAAAATCGTACAAATAAAATATAAAAT [XGTACX_site8730]	7.14
AAAAATGAGAAACACACACACATATATATATATATA [CACACA_site2228]	9.22
TCTTTAAATCGAGTGTTAAATAATATAATATAAAAA [CACACA_negctrl_site1507]	6.89
AACCAATATGAGTATACACACATAAATATAAATATA [CACACA_site5968]	6.95
AAAAAAAAAAAAGATACACACAAAAATGGATATATA [CACACA_site7069]	6.77
TAAGAATAATGACATAGTACAATTTAATAGATCTAA [XGTACX_site3670]	6.66
AAGTTTATTTGTTGCACACATATAAGTAGAGAAAAT [CACACA_site3027]	7.72
TTTTCAAAATAATATTATATCAAATGCTAAAAAGAA [TGCATGCA_negctrl_site588]	7.39
TACAGATATTATTGCACACATATAAAATACCCCCAA [CACACA_site6014]	7.9
TTACGTTATATACATACACACCCACGCACAAAAAAA [CACACA_site6537]	7.46
ATTAAATACTTCGATTGTACAATTTTTTTTTTTTTT [XGTACX_site832]	7
ATAAAAAACAGTGGCACACATTATGTATCCACCTTT [CACACA_site5958]	7
